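Following 48 hours of exposure in 96-well plates, responses at five concentrations were used to interpolate endpoints linearly. Here, GI50 denotes the concentration required for 50% inhibition of growth. The concentration for full growth arrest is given as TGI.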

This assay has as its system NCI-H322M lung. Briefly: growth of human tumour cells (NCI), 48 h.
With `NCCCc1ccc2oc3ccccc3c2c1`, the TGI amounted to 23.9 µM.

`N#Cc1c2c([nH]c(=O)c1C#N)CCCC2` had a TGI above 100 µM. In turn, `C=CCc1ccc(O)c(-c2cc(C3Oc4c(-c5cc(CC=C)ccc5O)cc(O)cc4[C@@H]3CO)ccc2O)c1` (some centres undefined) showed a TGI above 100 µM. `Nc1nc(OCc2ccccc2)nc2[nH]ncc12`: the GI50 was 13.6 µM and the TGI amounted to 37.6 µM. As for `CCC1=CC2CC(C(=O)OC)C1(N(C)C)C2=O` (centres undefined), the TGI was above 100 µM.

As for `CC(C)(C)OC(=O)CN1CCNCCN(CC(=O)OC(C)(C)C)CC1`, the TGI is above 100 µM. On the same count and under the same terms, the result for `O=[N+]([O-])c1ccc(N=NN2CCCC2)cc1` reads above 100 µM. In turn, `O=c1cccccc1NCCCCCCCCCNc1cccccc1=O` registered a TGI of 81.4 µM. `CC(CCc1ccc2c(c1)c(=N)c1ccc(N)cc1n2O)CC(C)(C)C` (centres undefined) came in with a TGI of 2.88 µM.

`O=C1CCC[C@H]2O[C@@H](COCc3ccccc3)C[C@@H]12`: the TGI was above 100 µM. The molecule `Cc1c2ccncc2c(C)c2c1[nH]c1ccc(OC(C)(C)C)cc12` yielded a TGI of 7.42 µM. Regarding `Cc1ncc([N+](=O)[O-])n1CCNC(=O)CCCn1cnc([N+](=O)[O-])n1`, the TGI is above 100 µM.

Consider `Clc1ccc2nc(Oc3ccccc3)cnc2c1`, for which the GI50 was above 100 µM and the TGI was above 100 µM. The molecule `O=C1C(=O)N(C2CCCCC2)C(=S)N1C1CCCCC1` displayed a TGI above 100 µM. Turning to `COc1ccccc1-c1c(C)nn2c(NCc3ccccn3)cc(C)nc12`, the GI50 is above 38.2 µM and the TGI was above 50 µM. `CCc1c2c(nc3cccc(N)c13)-c1cc3c(c(=O)n1C2)COC(=O)[C@]3(O)CC`: the GI50 was 0.0354 µM and the TGI was above 100 µM. Turning to `COc1ccc(-c2ccc(/C=N/n3c(COc4ccc(Cl)cc4)n[nH]c3=S)o2)c([N+](=O)[O-])c1`, the GI50 was 20 µM and the TGI turned out to be 44.1 µM. Regarding `OC(c1ccccc1)(c1ccccc1)c1cccnc1`, the TGI was above 100 µM. Molecule `CO[C@@H](c1ccccc1)[C@H](O)[C@](O)(c1ccccc1)P(=O)(OC)OC` displayed a TGI above 100 µM. Molecule `O=C(CC(C(=O)c1cccs1)c1ccsc1)c1ccsc1` (centres undefined) showed a TGI above 100 µM. `Cc1ccc(-c2n[nH]c(=O)[nH]2)cc1` displayed a TGI above 100 µM. Regarding `CN(C)C(=C1c2cc([N+](=O)[O-])ccc2-c2ccc([N+](=O)[O-])cc21)N(C)C`, the TGI was above 100 µM.

For `CC1CC2(CC[C@@H]1O)OCCO2` (some centres undefined), the TGI was above 100 µM. With `Cc1ccc2c(c1)ncn2-c1ncnc2c1CC(C)c1ccccc1N2C` (centres undefined), the GI50 was 0.454 µM and the TGI turned out to be 17.1 µM.

As for `O=C1c2ccccc2C(=O)C1C(c1ccc([N+](=O)[O-])cc1)C1C(=O)c2ccccc2C1=O`, the TGI was above 100 µM. As to `CN(C)c1ccc(N=Nc2c([O-])ccc3ccccc23)cc1.[C-]#[O+].[C-]#[O+].[Ir]`, the GI50 was above 100 µM and the TGI is above 100 µM. `CCOc1ccc(NC(=O)CC2SC(N)=NC2=O)cc1` (centres undefined) gave a TGI above 100 µM.

For `Fc1ccc(Nc2nccc(-c3c(-c4ccc(C(F)(F)F)cc4)nn4ncccc34)n2)cc1F`, the GI50 was above 25 µM and the TGI is above 25 µM.

Take `Cc1cccc(C)c1NC(=O)CCCC(=O)C1CC(=O)CCC1=O` (centres undefined): the TGI was above 100 µM.

As to `O=C(NCCNCCO)N/N=C/c1ccc([N+](=O)[O-])cc1`, the TGI is above 100 µM.

For `CC(=O)Oc1ccccc1C(=O)C1c2cccc(O)c2C(=O)c2c(O)cccc21`, the TGI amounted to 3.72 µM. Consider `NC1=Nc2ccccc2Sc2nnc(-c3ccc(Cl)cc3)n21`, for which the TGI was above 100 µM. For `Oc1cc(Cl)ccc1Oc1ccc(Cl)cc1Cl`, the GI50 is 9.22 µM and the TGI amounted to 22 µM.

In the case of `CC(C)N1CSC(=S)N(Cc2ccccc2)C1`, the TGI is above 10 µM. With `N=c1oc2ccc(Cl)cc2cc1C(=O)Nc1ccccc1`, the TGI is above 100 µM. Consider `O=c1[nH]cc(OCC(F)(F)F)c(=O)[nH]1`, for which the TGI was above 100 µM. Take `O=c1oc2ccc(Cl)cc2c(=O)n1-c1ccc(I)cc1F`: the GI50 is 0.236 µM and the TGI was above 29 µM. As for `NCc1ccc(-n2c(-c3nonc3N)nc3cnccc32)cc1`, the GI50 is above 14.8 µM and the TGI is above 25 µM. With `COC(=O)[C@]1(C)CCC[C@@]2(C)C1CCC1=C[C@@]3(C(C)C)CC[C@]12OO3` (some centres undefined), the TGI is above 100 µM. On the same count and under the same terms, as for `CCOC(=O)C(O)(NC(=O)Nc1ccc(F)cc1)C(F)(F)F` (centres undefined), the figure is above 100 µM. The same measure, in the same setting: as for `O=C1C=CC(=O)c2c(O)c(N[C@@H](Cc3ccccc3)C(=O)OCc3ccccc3)c(Cl)c(O)c21`, the figure is above 10 µM; as for `CC1CC[C@@]2(OC1)OC1C[C@H]3[C@@H]4CC[C@H]5CC(OC6OC(CO)C(OC7OC(CO)C(O)C(O)C7O)C(O)C6O)CCC5(C)[C@H]4CCC3(C)C1[C@@H]2C` (some centres undefined), 16.8 µM; as for `CSCC[C@H]1C(=O)N=C(N)N1C(=O)OCc1ccccc1`, above 100 µM. On to `NC1CNC(=O)c2cscc21` (centres undefined), for which the TGI was above 100 µM. With `CN(C)Cc1cc(N=Nc2ccccc2Cl)cc(CN(C)C)c1O`, the TGI was above 100 µM. As for `COC(=O)[C@@]12OC[C@]34C([C@@H](O)C1O)[C@@]1(C)CC(=O)C(O)=C(C)C1C[C@H]3OC(=O)[C@H](OC(=O)CC(C)C(F)(F)F)[C@H]42` (some centres undefined), the TGI amounted to 2.01 µM. In turn, `CN1C(=O)C(O)CC1c1cccc(F)c1` (centres undefined) showed a TGI above 100 µM. With `Clc1ncnc2c1nc(C#Cc1ccccc1)n2Cc1ccccc1`, the TGI came out at 31.8 µM. The same measure, in the same setting: the result for `CCN1C(=O)C(=Cc2ccc(-c3ccccc3)cc2)C(=O)N(CC)C1=S` reads above 100 µM; that for `COC(=O)C(=O)C(C(=O)C=C(C)C)C(=O)C(=O)Nc1cccc(C(C)=O)c1` (centres undefined), above 100 µM; that for `CC(C)(Br)C(=O)/C=C/c1ccccc1`, 68.3 µM. With `O=C(CC(C(=O)c1ccsc1)c1ccccc1)c1cccs1` (centres undefined), the TGI is above 100 µM. In the case of `Cc1cc(N2CCCC2)nc(N(CCCNc2ccnc3cc(Cl)ccc23)Cc2ccc3c(c2)OCO3)n1`, the GI50 is 1.67 µM and the TGI was 12 µM. On to `O=C(NN1C(=O)CSC1c1ccc(Cl)cc1)c1[nH]c2ccc(F)cc2c1-c1ccccc1` (centres undefined), for which the GI50 was 3.56 µM and the TGI turned out to be 14.8 µM. `O=C(Nc1cc(Cl)c(Cl)cc1Cl)C(=O)C(C(=O)c1ccc(Cl)c(Cl)c1)C1OC(=O)c2ccccc21` (centres undefined) returned a TGI of 84.4 µM. Consider `COc1cc(/C=C(/c2ccccc2)[N+](=O)[O-])c(OC)c2c1OCO2`, for which the GI50 was 1.66 µM and the TGI was 3.04 µM. Take `O=C(O)c1c[nH]cc1C(=O)O`: the TGI is above 100 µM. Still for that read-out and setting: as for `CC1OC(c2ccccc2)=CC(OCc2ccccc2)[C@H]1OCc1ccccc1` (some centres undefined), the figure is above 10 µM; as for `O=C1CC2C(=O)N(Cc3ccccc3)C1C(S(=O)(=O)c1ccccc1)C2S(=O)(=O)c1ccccc1` (centres undefined), 31.3 µM. `Cc1cccc(Nc2cn(CCOc3ccccc3)c(=O)n(CCOc3ccccc3)c2=O)c1` registered a TGI above 100 µM. Still for that read-out and setting: as for `Cc1cc(C2(c3cc(C)c(O)c(C(=O)O)c3)OS(=O)(=O)c3ccccc32)cc(C(=O)O)c1O`, the figure is above 100 µM; as for `CC(=O)NC(CCCN(Cc1ccccc1)C(=O)N(CCCl)N=O)C(=O)NCc1ccccc1` (centres undefined), above 100 µM; as for `FC(F)(F)c1ccc2nc(Nc3ccc(Cl)c(Cl)c3)c(-c3ccccc3)nc2c1`, above 100 µM. On to `Cn1cc(-c2ccc(CNc3cc(-c4cnc5cc(OCCCN6CCCC6)ccn45)ncn3)cc2)cn1`, for which the GI50 was 2.03 µM and the TGI came to 4.78 µM.

The values above are taken from PubChem BioAssay (NCI).
